Measured values reported in the supplement of paper PMC5499739.
In all, about 16,000 sequences were measured (“Z-score”: median about -0.37, highest 2% from about 3.1 on). The list shows a part of the results.

These sequences were tested on RBM10 RRM1-ZnF-RRM2 (GST-tagged construct) (assay: RNAcompete 7-mer binding Z-score; higher = stronger binding preference).
Outline: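 A one-sided Z-score for enrichment, taken across the probes containing each heptamer motif, was assigned to every such motif. The RNA came from a designed pool of 241 399 sequences up to 41 nt (1.5 nmol), bound by 20 pmol of GST-tagged RBM10 constructs in 1 ml Hepes pH 7.8 buffer with glutathione Sepharose beads for 30 min at 4°C. Four 2-min washes at 4°C preceded identification of bound RNA by microarray hybridisation.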

Sequence	RNAcompete 7-mer binding Z-score
GCCGGCG	-0.209
AGUUCGC	-0.5
GUAUGCA	0.479
GCAAGUU	-0.00512
UCAGUUA	-0.282
GAAGUGG	3.12
GCAUAAA	-0.191
AUGCGGU	1
UCCGAAU	-0.839
CGGUUCA	-0.318
GUUAGGA	1.91
UCUGGAC	-0.34
AGAUAAA	0.148
GCAACCA	0.0058
AGAAUGC	-0.26
GGUUGGC	2.03
CAGGAUA	1.21
GCCAUGA	-0.439
GGCAUGC	0.228
GUAUGAG	1.09
CUAGAGA	-0.107
AUACUAU	-0.624
GGAAGGC	3.04

Sequence	RNAcompete 7-mer binding Z-score
GACUUCG	-0.661
UAACUUG	-0.602
AACAGCC	-0.624
AAAACGA	0.0896
UGUCAUG	-0.351
GGCUAUC	-0.544
GGGCGUA	2.28
ACGGGGA	2.84
UUCUUAU	-0.744
GAUGGAU	2.3
UGGUAGU	0.585
AUGGGCG	3
CCGUCGU	-0.511
AGUGGUC	0.552
CCCGUAG	-0.537
AUUUAGG	0.694
AGGAAAA	1.75
CCAGAGG	0.621
CCCAGCG	-0.311
GUGCGUG	1.03
UCAGUGG	1.07
UGCUUCC	-0.868
GACAGAU	-0.0816

Sequence	RNAcompete 7-mer binding Z-score
GGACGAU	0.661
ACCAGCG	0.0131
AUUAACG	-0.293
UCCGAAC	-0.635
AUACAGA	-0.0415
GUCUAGU	-0.238
GGUAGCU	0.683
CAAACAA	-0.205
UGCCAUC	-0.803
CAUCAGG	0.374
GCCAUGC	-0.661
CCUUGUG	-0.857
GCCCUGA	-0.752
AACUUUG	-0.65
UGCAGAU	-0.0452
GGGUCCG	1.71
UGCACUC	-0.621
GCGCCCG	-0.559
AUACACG	-0.238
GCAGUGC	0.141
AUUGUAG	0.275
GCGGGUC	1.97
GAAACGG	2.22

Sequence	RNAcompete 7-mer binding Z-score
UGAGCCA	-0.3
AUUAAUU	-0.617
ACCAACU	-0.683
GUGCUAG	0.268
UGUCUCA	-0.723
UCGUGGG	2.23
UUAGGAC	0.567
GUCGUGG	1.43
CAGCUGA	-0.424
CUCACAG	-0.351
ACAGGGA	3.47
CGCAGGA	0.647
CCGGCAU	-0.799
GGGGUAC	2.82
GUAUCAC	-0.0925
AAUCUUU	-0.752
UUCUUUC	-0.697
UCGUGAA	-0.26
AUGCGCG	-0.0889
GUUAGUU	0.0167
UACGAUA	0.00944
ACUUCAG	-0.526
AUGCUCU	-0.974

Sequence	RNAcompete 7-mer binding Z-score
UGCGGCG	1.03
UAGUGCG	0.548
GUCAACG	0.301
CGAAGGC	0.829
AUUUUGC	-0.992
CUAGAGC	-0.468
CUACGUU	-0.697
AUGGUUG	2.02
GUUCCGA	-0.541
ACAAAUG	0.359
GAGGCGU	1.06
ACUGCAC	-0.592
AGAGAUG	1.17
GUCUCUC	-0.719
AGAUGCC	-0.916
UCUUGAA	-0.868
UGCCCUU	-0.832
AACCUGU	-0.697
AAUCGCA	-0.347
CACUAGA	-0.213
UUCAAGG	0.312
AAGGGUC	2.01
AAUUUAA	-0.602

Sequence	RNAcompete 7-mer binding Z-score
AUGGGGG	3.84
UACUGCA	-0.493
UCUCGUC	-0.726
AGUCCCG	-0.358
AUUGAUC	-0.282
ACCAAGU	-0.329
AAGCAUA	0.0641
GAGCAUG	0.483
ACAUAGA	0.0932
AGCCCAU	-0.857
CACAUUA	-0.435
GAGAUCG	0.439
AACCGAU	-0.49
UAAUCAA	-0.249
CAUAAAA	-0.347
CCAAAUA	-0.584
GAAACAU	-0.169
CCUGUGC	-0.712
UCAUGGA	0.567
AGGGGGA	2.14
GUAGCGG	1.93
CGAGGCA	1.4
AUAAUGU	-0.136

Sequence	RNAcompete 7-mer binding Z-score
CCGGACA	-0.504
CGCCCGU	-0.621
CCCAAAG	-0.595
UCGGGGC	1.85
GUCGUAU	0.381
AUCAAAA	-0.388
AAGGAAG	4.04
CUAGUAU	-0.413
UUCCCCA	-0.65
GUUUCGU	-0.176
GCUGCCC	-0.613
GCUCGGU	0.0058
GCAUGCU	-0.53
UCGCCGA	-0.752
UGUAGGA	1.9
AAUGCAA	0.0714
CUGCAAU	-0.675
GGCAAUC	0.162
AUACAAA	-0.26
CGGUAUU	0.162
AGUCCCC	-0.395
ACCUGGC	-0.643
CAAAGAU	-0.282

Sequence	RNAcompete 7-mer binding Z-score
CGACACU	-0.541
UAAGCUA	-0.406
UUAUGGU	0.272
AAUUUGU	-0.551
UGAUGUG	0.712
CGCUUUC	-0.77
GCUAACA	-0.202
GUGCCGC	-0.231
AGUUCGU	-0.271
AUGGACC	0.599
UUGGUCU	-0.3
AUUUACU	-0.668
GUUCCUG	-0.632
GCGAUCC	-0.672
UCUUAAU	-0.672
CCUAUUG	-0.65
UUGCCCA	-0.763
CGGAUCC	-0.067
GCGCUAA	-0.599
GCAGAGA	1.16
UUUCCAG	-0.646
UACAUCU	-0.741
AGGUGCC	0.192
